Measurements published in PubChem BioAssay AID504832 (National Center for Advancing Translational Sciences (NCATS), 2011).
Among all 310,000 compounds or so, about 18,000 (5.8%) were called active. The shares of active, inactive and inconclusive entries below differ from those in the screen. Calls come from the whole dose curve; as a rule, active = well fitted inhibition curve with a large enough effect; inconclusive = small, poorly fitted or top-dose-only effect, or another doubt; inactive = no such curve, though single readings can be large or run the other way. Potencies of inconclusive entries are left out as doubtful fits.

Assay: Primary qHTS for delayed death inhibitors of the malarial parasite plastid, 48 hour incubation
Conditions: P. falciparum luciferase growth in erythrocytes; series mostly up to 28.7 µM
Outline: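 In quantitative HTS format, infected erythrocytes bearing luciferase-reporter parasites were treated for a single generation at 37 C. Luminescence after adding detection reagent served as the growth measure.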
Potency is the fitted concentration of half-maximal effect; tags give direction and shape of the fitted curve.

Structure (SMILES)	Potency
Cc1ccc(NC(=O)C2CCCN(c3ncnc4c3nc3n4CCCCC3)C2)nc1 (configuration not stated)	inconclusive [inhibitor, single point]
COc1ccc2nc(NC(=O)CCc3ccc(OC)c(OC)c3)sc2c1	inconclusive [inhibitor, partial curve, poor fit]
Cc1ccc(Cn2c(SCCN3CCOCC3)nc3c2c(=O)n(C)c(=O)n3C)cc1	inconclusive [inhibitor, single point]
CCOC(=O)Oc1c(OC)cc(C(=O)O[C@@H]2C[C@@H]3CN4CCc5c([nH]c6cc(OC)ccc56)[C@H]4C[C@@H]3[C@H](C(=O)OC)[C@H]2OC)cc1OC	active: 2.62 µM
Cc1ccc(C)c(CSC2=NCCN2C(=O)c2cccs2)c1	inconclusive [inhibitor, partial curve, poor fit]
O=C(/C=C/c1ccc(OCCCF)cc1)N1CCOCC1	inactive
CCN=C1S/C(=C\c2cn(CC(=O)NCc3ccco3)c3ccccc23)C(=O)N1CC	inconclusive [inhibitor, partial curve, poor fit]
Fc1cccc(CSc2nnc3ccc(-c4ccncc4)nn23)c1	inconclusive [inhibitor, full curve, poor fit]
CNC(=S)N(Cc1ccc(OC)cc1)C1CC(=O)N(c2ccc(Cl)cc2)C1=O (configuration not stated)	inconclusive [inhibitor, single point]
CCN(CC)S(=O)(=O)c1ccc(-n2c(=O)c(C(C)C)c(C)n2C)cc1	inactive
Cc1cccc(Nc2nnc(SC/C(O)=C(\C#N)c3nc4ccccc4[nH]3)s2)c1C	inconclusive [inhibitor, single point]
CCOCN(C(=O)Cn1c(COC)nc2ccccc21)c1c(C)cccc1CC	inconclusive [inhibitor, partial curve]
COc1ccc(C(=O)c2c(NC(C)=O)sc3c2CCN(C(=O)OC(C)(C)C)C3)cc1	active: 8.28 µM
COc1cccc(CNC(C)(C)CO)c1OCc1ccc(Cl)cc1	inconclusive [inhibitor, single point]
O=c1[nH]c2ccc(Cl)cc2c(-c2ccccc2)c1SC(=S)N1CCOCC1	inconclusive [inhibitor, partial curve, poor fit]
O=C(CCC(=O)N1CCN(c2ccc(F)cc2)CC1)c1ccccc1	inactive
COC(=O)CCCn1c(C)cc(C(=O)CCl)c1C	inconclusive [inhibitor, single point]
O=C(N/N=C/c1cccc(O)c1)c1ccc(COc2ccccc2Br)cc1	inactive
COc1ccc(CCNC(=O)CSc2nnnn2Cc2ccc3c(c2)OCO3)cc1OC	inconclusive [inhibitor, partial curve, poor fit]
COc1ccc(N2CCN(C(=O)C3CCCN(c4ncnc5c4nc4n5CCCCC4)C3)CC2)cc1 (configuration not stated)	active: 11.7 µM
Cc1onc(-c2ccccc2Cl)c1C(=O)Nc1ccc(S(=O)(=O)NCC2CCCO2)cc1 (configuration not stated)	inconclusive [inhibitor, single point]
CCOc1ccccc1NC(=O)CSc1nc2cccnc2n1C	inactive
COc1ccnc(CSC(N)=Nc2ccc(F)cc2)c1	inactive

Structure (SMILES)	Potency
CCC(C)c1ccccc1NC(=O)COC(=O)c1ccc2c(c1)S(=O)(=O)c1ccccc1C2=O (configuration not stated)	inactive
CCCC(=O)NC(c1cccs1)c1cc(Cl)c2cccnc2c1O (configuration not stated)	active: 3.7 µM
O=C(NNc1c2ccccc2nc2ccccc12)c1ccccc1O	inconclusive [inhibitor, single point]
Cc1n[nH]c(C)c1CCNC(=O)C1CCC(=O)N(Cc2ccccc2F)C1 (configuration not stated)	inactive
CCOC(=O)NC(=O)CSc1ccc(C)cc1C	inconclusive [inhibitor, single point]
COc1cccc(N2CC(NC(=O)C(=O)c3c[nH]c4ccccc34)CC2=O)c1 (configuration not stated)	inconclusive [inhibitor, partial curve, poor fit]
O=C(Nc1ccc([N+](=O)[O-])cc1)c1cccc(S(=O)(=O)Nc2cccnc2)c1	inactive
Cc1ccc(N=CC=C2OC(C)(C)C(C)(C)O2)cc1	inconclusive [inhibitor, single point]
COCCn1cnnc1SCC(=O)Nc1cc(OC)c([N+](=O)[O-])cc1C	inconclusive [inhibitor, full curve, poor fit]
N#Cc1nc(-c2cccc3ccccc23)oc1NCCN1CCCCC1	inconclusive [inhibitor, single point]
COc1cccc(NC(=O)CN(C)C(=O)c2ccc(S(=O)(=O)Nc3ccccc3F)cc2)c1	inconclusive [inhibitor, full curve]
COc1ccc(S(=O)(=O)N2CCN(C(=O)CN3C(=O)NC(C)(c4ccc5ccccc5c4)C3=O)CC2)cc1 (configuration not stated)	inconclusive [inhibitor, single point]
O=C(NC1CCCCCC1)C1CCCN(S(=O)(=O)c2cccs2)C1 (configuration not stated)	inconclusive [inhibitor, partial curve, poor fit]
Cc1cn2nc(N)c3ccccc3c2n1	inactive
O=C(Nc1ccc(-c2ccco2)cc1)C1CCCN(Cc2ccc(CO)o2)C1 (configuration not stated)	inconclusive [inhibitor, partial curve, poor fit]
Cc1ccccc1C(=O)N1CCC(C(=O)Nc2ccccn2)CC1	inconclusive [inhibitor, partial curve, poor fit]
Cc1ccc(CNC(=O)c2ccc(N3CCC4(CC3)CC(c3cccc(Br)c3)=NO4)c(NC(=O)c3ccccc3)c2)cc1	active: 9.28 µM
C#Cc1ccc([C@@H]2C=C(C(=O)OCC=C)O[C@H](OCc3ccc(CO)cc3)C2)cc1	inconclusive [inhibitor, partial curve, poor fit]
O=C(NCC1(N2CCOCC2)CCCCC1)c1ccc(Cl)c(S(=O)(=O)NCc2ccco2)c1	active: 6.57 µM
CCC(C)(C)NC(=O)C(c1cccn1C)N(C(=O)Cn1nnc2ccccc21)c1ccccc1OC (configuration not stated)	inconclusive [inhibitor, partial curve]
CC(OC(=O)c1ccc(O)cc1)C(=O)Nc1cc(C(F)(F)F)ccc1Cl (configuration not stated)	inconclusive [inhibitor, partial curve]
Nc1nc(CCl)nc(Nc2cccc3ccccc23)n1	inconclusive [inhibitor, full curve, poor fit]
Cn1nc(C(=O)NCC2COc3ccccc3O2)c2ccccc2c1=O (configuration not stated)	inconclusive [inhibitor, single point]

Structure (SMILES)	Potency
CCOC(=O)C(NC(=O)c1ccccc1)(OCc1ccccc1)C(F)(F)F (configuration not stated)	inactive
NC(=O)c1nsc(C(=O)N(c2ccc3c(c2)OCO3)C(C(=O)NCC2CCCO2)c2ccc(F)cc2)c1N (configuration not stated)	inconclusive [inhibitor, single point]
CCOC(=O)N1CCN(S(=O)(=O)c2ccc(C(=O)N(CCCN(C)C)c3nc4ccc(Cl)cc4s3)cc2)CC1	inconclusive [inhibitor, partial curve]
Cc1c(C(=O)O)sc2nc3n(c(=O)c12)CCC3	inactive
C=CCN1C=C2C(=O)C(C)(OC(=O)CCC(=O)OC)C(=O)C=C2C=C1C1CC1 (configuration not stated)	active: 7.38 µM
Cc1cc(N2C(=O)CC(N3CCN(C(c4ccccc4)c4ccccc4)CC3)C2=O)no1 (configuration not stated)	inactive
Cc1ccc(/C=N/Nc2ccnc3cc(Cl)ccc23)c(C)c1	active: 0.208 µM
C=CCSc1nnc(Cc2cc(=O)[nH]c(=O)[nH]2)n1-c1cc(C)ccc1C	inconclusive [inhibitor, partial curve, poor fit]
CCN(CC)C(=O)CSc1nc2ccccc2c(=O)n1CCC(=O)NCc1ccc(F)cc1	active: 9.28 µM
NC(=O)CSc1nnc(Cc2csc(Nc3ccc(F)cc3)n2)n1Cc1ccccc1	inconclusive [inhibitor, single point]
Cc1ccccc1N(CC(=O)NCc1ccc2c(c1)OCO2)C(=O)CCC(=O)Nc1ccccn1	inconclusive [inhibitor, partial curve, poor fit]
O=C(CN1C(=O)NC2(CCCC2)C1=O)OCc1ccc(Cl)c(Cl)c1	inactive
O=C(Nc1ccc2c(c1)OCO2)N1CCN(Cc2ccco2)CC1	inconclusive [inhibitor, full curve, poor fit]
Cc1cc(NC(=O)CCC(=O)N(CC(=O)NC2CCCC2)c2ccccc2)no1	inconclusive [inhibitor, single point]
CCOCCCNS(=O)(=O)c1ccc(Br)cc1	inactive
COc1ccccc1/C=N/NC(=O)c1ccc(NC(=O)c2cccc([N+](=O)[O-])c2)cc1	active: 5.22 µM
CC(C)N(Cc1nc(-c2ccccc2)no1)C(=O)C(C)(C)C	inactive
COc1ccc(N2CCN(C(=O)c3cn(C)c(=O)c4c3c3ccccc3n4C)CC2)cc1	inconclusive [inhibitor, partial curve, poor fit]
O=C(NCc1ccccc1)c1ccc(Cl)cc1	inactive
CCOc1cc(/C=C2/NC(=O)N(Cc3ccccc3F)C2=O)ccc1O	inconclusive [inhibitor, single point]
COc1ccccc1N1CCN(c2nc(C)nc3c2oc2ccccc23)CC1	inconclusive [inhibitor, single point]
